# System: COc1cc2c(C(=O)O)c(C)oc2cc1OS(=O)(=O)O
# Experiment: Inhibition of human factor 10a assessed as initial rate of S-2772 hydrolysis at 2.6 mM by Michaelis-Menten analysis
substance,measurement,value
Coagulation factor X (Homo sapiens) (letters omitted),Km,61 µM
same,Vmax,54 mAU/min
